Laboratory results from paper PMC10514306, “The CBL1/9-CIPK1 calcium sensor negatively regulates drought stress by phosphorylating the PYLs ABA receptor” (Nature Communications, 2023).
These are yes or no findings as the source states them, for the method shown. For some of these results: Binding seen in cells or lysates may run through a third protein. Some entries that bind do so weakly or less than the wild type. For some of these results: Sequences can lack the tags named with a protein.

Chains of the proteins cited; added tags and fusions are not shown.
UniProt Q8VZS8: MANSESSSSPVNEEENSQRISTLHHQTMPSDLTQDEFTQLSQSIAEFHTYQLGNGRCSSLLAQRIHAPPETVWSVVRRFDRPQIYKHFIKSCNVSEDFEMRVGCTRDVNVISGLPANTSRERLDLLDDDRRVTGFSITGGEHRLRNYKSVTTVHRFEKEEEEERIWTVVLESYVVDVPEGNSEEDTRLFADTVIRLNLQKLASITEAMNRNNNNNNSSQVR
UniProt O49686: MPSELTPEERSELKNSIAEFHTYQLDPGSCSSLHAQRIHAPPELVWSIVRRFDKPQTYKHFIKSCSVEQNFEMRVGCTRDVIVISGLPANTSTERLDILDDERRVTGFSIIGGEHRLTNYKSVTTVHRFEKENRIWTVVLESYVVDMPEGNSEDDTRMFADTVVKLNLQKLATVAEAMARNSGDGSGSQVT
UniProt P49597: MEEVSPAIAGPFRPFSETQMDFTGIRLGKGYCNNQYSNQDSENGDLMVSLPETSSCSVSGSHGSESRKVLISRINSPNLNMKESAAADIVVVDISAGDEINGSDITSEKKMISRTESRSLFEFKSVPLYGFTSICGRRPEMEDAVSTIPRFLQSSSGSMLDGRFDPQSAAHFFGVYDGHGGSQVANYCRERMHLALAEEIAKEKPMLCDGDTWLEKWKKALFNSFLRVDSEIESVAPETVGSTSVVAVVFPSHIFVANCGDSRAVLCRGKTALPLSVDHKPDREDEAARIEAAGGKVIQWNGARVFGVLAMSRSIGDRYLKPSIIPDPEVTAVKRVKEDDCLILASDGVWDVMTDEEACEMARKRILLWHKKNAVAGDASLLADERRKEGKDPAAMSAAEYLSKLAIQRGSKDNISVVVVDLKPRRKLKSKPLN

Legend:
CIPK1-FLAG (Arabidopsis) = target: T1, CIPK1-FLAG (Arabidopsis) (UniProt Q8RWC9); test: co-IP; protein extract of transgenic Arabidopsis expressing PYL1/4-GFP and CIPK1-FLAG; anti-FLAG precipitation, anti-GFP blot; without or with 100 uM ABA added to the extract
T1 sequence: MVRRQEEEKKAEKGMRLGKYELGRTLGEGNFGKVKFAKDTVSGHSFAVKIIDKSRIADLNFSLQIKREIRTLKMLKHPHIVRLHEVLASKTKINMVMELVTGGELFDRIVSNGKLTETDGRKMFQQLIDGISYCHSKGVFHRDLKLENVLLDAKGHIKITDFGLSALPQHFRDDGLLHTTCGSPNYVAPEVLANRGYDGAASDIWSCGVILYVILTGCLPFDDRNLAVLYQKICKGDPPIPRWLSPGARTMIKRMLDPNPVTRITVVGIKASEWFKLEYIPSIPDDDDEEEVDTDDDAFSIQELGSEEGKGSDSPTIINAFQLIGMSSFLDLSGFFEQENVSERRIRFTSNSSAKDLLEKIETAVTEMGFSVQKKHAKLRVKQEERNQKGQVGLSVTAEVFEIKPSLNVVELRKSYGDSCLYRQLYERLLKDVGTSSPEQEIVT

[1] = target: T2, PYL4 in pGBKT7 (Arabidopsis) (UniProt O80920); test: two-hybrid; ABI1 in pGADT7, PYL4 in pGBKT7, S. cerevisiae AH109; growth on SD/-Leu/-Trp/-His in the absence or presence of 10 uM ABA, 30 C, 4 d
T2 sequence: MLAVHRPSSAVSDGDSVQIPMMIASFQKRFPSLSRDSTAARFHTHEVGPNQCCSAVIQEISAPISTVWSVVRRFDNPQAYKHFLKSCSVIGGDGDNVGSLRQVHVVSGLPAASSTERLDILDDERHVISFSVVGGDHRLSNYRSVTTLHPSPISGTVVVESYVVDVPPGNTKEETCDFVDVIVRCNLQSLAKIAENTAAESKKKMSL

PYL6-YFP^c (Arabidopsis) = target: T3, PYL6-YFP^c (Arabidopsis) (UniProt Q8S8E3); test: split reporter; BiFC: YFP^n-CIPK1 and PYR1/PYLs-YFP^c expressed in N. benthamiana leaves for 4 d; confocal microscopy
T3 sequence: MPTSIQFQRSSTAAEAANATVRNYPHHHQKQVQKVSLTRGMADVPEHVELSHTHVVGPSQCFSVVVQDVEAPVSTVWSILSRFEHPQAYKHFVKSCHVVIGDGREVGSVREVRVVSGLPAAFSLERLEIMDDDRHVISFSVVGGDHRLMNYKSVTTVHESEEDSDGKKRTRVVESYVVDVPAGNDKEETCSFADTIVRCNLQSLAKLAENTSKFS

PYL2-YFP^c (Arabidopsis) = target: T4, PYL2-YFP^c (Arabidopsis) (UniProt O80992); test: as above
T4 sequence: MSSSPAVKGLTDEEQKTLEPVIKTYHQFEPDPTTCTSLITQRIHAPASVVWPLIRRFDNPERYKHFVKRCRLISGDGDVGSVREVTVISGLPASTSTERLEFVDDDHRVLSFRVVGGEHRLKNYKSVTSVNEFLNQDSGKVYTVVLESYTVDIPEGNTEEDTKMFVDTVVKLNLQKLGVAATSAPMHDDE

PYL3-YFP^c (Arabidopsis) = target: T5, PYL3-YFP^c (Arabidopsis) (UniProt Q9SSM7); test: as above
T5 sequence: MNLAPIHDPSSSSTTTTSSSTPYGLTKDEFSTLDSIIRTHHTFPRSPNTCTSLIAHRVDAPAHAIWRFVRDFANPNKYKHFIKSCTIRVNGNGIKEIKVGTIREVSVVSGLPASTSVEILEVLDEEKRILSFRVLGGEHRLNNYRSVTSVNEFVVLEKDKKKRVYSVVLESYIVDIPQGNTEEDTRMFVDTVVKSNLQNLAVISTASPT

PYL4-YFP^c (Arabidopsis) [2] = target: T6, PYL4-YFP^c (Arabidopsis) (UniProt O80920); test: as above
T6 sequence: T2 sequence

PYL1-YFP^c (Arabidopsis) = PYL1-YFP^c (Arabidopsis) (UniProt Q8VZS8); test: as above
PYL5-YFP^c (Arabidopsis) = target: T7, PYL5-YFP^c (Arabidopsis) (UniProt Q9FLB1); test: as above
T7 sequence: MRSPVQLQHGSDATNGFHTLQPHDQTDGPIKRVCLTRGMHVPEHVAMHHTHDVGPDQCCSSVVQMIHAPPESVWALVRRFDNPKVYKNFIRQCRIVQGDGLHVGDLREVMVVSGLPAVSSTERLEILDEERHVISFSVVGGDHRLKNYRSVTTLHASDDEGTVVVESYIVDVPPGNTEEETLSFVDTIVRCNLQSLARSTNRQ

PYR1-YFP^c (Arabidopsis) = PYR1-YFP^c (Arabidopsis) (UniProt O49686); test: as above
PYL4-YFP^c (Arabidopsis) [3] = target: T6, PYL4-YFP^c (Arabidopsis); test: split reporter; BiFC in tobacco leaf protoplasts, without or with CBL1-FLAG; confocal microscopy; CBL1n-OFP as plasma-membrane marker
GST-ABI1 (Arabidopsis) = GST-ABI1 (Arabidopsis) (UniProt P49597); test: pull-down; in vitro pull-down of ABI1 and PYL4 or PYL4^S129D; who was held is not stated; both purified
GST-PYL9 (Arabidopsis) = target: T8, GST-PYL9 (Arabidopsis) (UniProt Q84MC7); test: pull-down; 5 ug GST-PYR1/PYLs on GST resin at 4 C for 2 h, then 2 ug CIPK1-His for 2 h in pull-down buffer; 6 washes; blots with anti-His and anti-GST; both purified
T8 sequence: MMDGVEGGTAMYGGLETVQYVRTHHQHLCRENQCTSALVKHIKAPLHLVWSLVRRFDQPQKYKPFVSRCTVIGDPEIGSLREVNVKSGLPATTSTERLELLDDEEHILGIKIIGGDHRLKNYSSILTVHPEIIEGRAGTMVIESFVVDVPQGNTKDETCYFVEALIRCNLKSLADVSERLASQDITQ

PYL1-GFP (from UniProt Q8VZS8 1-221) (receptor)
binding (CIPK1-FLAG (Arabidopsis)): binds

ABI1 in pGADT7 (from UniProt P49597 1-434) (enzyme)
binding [1]: binds

B1: YFP^n-CIPK1 (enzyme, UniProt Q8RWC9 1-444)
chain: T1 sequence
binding (PYL6-YFP^c (Arabidopsis)): binds
binding (PYL2-YFP^c (Arabidopsis)): binds
binding (PYL3-YFP^c (Arabidopsis)): binds
binding (PYL4-YFP^c (Arabidopsis) [2]): binds
binding (PYL1-YFP^c (Arabidopsis)): binds
binding (PYL5-YFP^c (Arabidopsis)): binds
binding (PYR1-YFP^c (Arabidopsis)): binds
binding (PYL4-YFP^c (Arabidopsis) [3]): binds

B2: PYL4-GFP (receptor, UniProt O80920 1-207)
chain: T2 sequence
binding (CIPK1-FLAG (Arabidopsis)): binds

B3: PYL4-His (receptor, UniProt O80920 1-207)
chain: T2 sequence
binding (GST-ABI1 (Arabidopsis)): binds

B4: CIPK1-His (enzyme, UniProt Q8RWC9 1-444)
chain: T1 sequence
binding (GST-PYL9 (Arabidopsis)): no binding
